The list shows a part of the results. Repeats are few or missing, and single values can be far off.
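Further: cell number obtained by counting DAPI-stained nuclei in high-throughput microscope images with image analysis software, screen run in 1,536-well plates.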

In this test the test system is A375. Nature of the test: cell count relative to DMSO control; melanoma cells; higher = more viable cells. The conditions noted are these: library dose: low library concentration; 72 h.
`OCCn1cc(-c2cnc3nnn(Cc4ccc5ncccc5c4)c3n2)cn1` + COc1ccc2c(c1)CCC1C2CCC2(C)C(NCCCCCCN3C(=O)C=CC3=O)CCC12 [U73122] (first compound 1 µM, partner dose 0.4 µM): the cell count was 95.7%.

In the case of `NCC(=O)Nc1ccc(-n2nc(C(F)(F)F)cc2-c2ccc3c(ccc4ccccc43)c2)cc1` + CN(NC(=O)CC(=O)NN(C)C(=S)c1ccccc1)C(=S)c1ccccc1 [STA4783] (first compound 1 µM, partner dose 0.006 µM), the cell count amounted to 8.12%.

In turn, `Cc1nc(Nc2ncc(C(=O)Nc3c(C)cccc3Cl)s2)cc(N2CCN(CCO)CC2)n1` [dasatanib] + Oc1nc(-c2ccc(C(F)(F)F)cc2)nc2c1CSCC2 [XAV939] (first compound 0.004 µM, partner dose 2 µM) yielded a cell count of 87.8%.

The molecule `OCCn1cc(-c2cnc3nnn(Cc4ccc5ncccc5c4)c3n2)cn1` + O=C(O)C(=O)Nc1sc2c(c1C(=O)O)CCNC2 [TCS401] (first compound 1 µM, partner dose 1.66667 µM) showed a cell count of 100%.

In turn, `C[C@]1(c2nc3c(C(N)=O)cccc3[nH]2)CCCN1` [Veliparib] + COc1ccc2c(c1)CCC1C2CCC2(C)C(NCCCCCCN3C(=O)C=CC3=O)CCC12 [U73122] (first compound 1.4 µM, partner dose 0.4 µM) showed a cell count of 66.9%.

In turn, `NCC(=O)Nc1ccc(-n2nc(C(F)(F)F)cc2-c2ccc3c(ccc4ccccc43)c2)cc1` + O=C(Nc1ccccc1)c1cc([N+](=O)[O-])ccc1Cl [GW9662] (first compound 1 µM, partner dose 2 µM) displayed a cell count of 16.8%.

On to `OCCn1cc(-c2cnc3nnn(Cc4ccc5ncccc5c4)c3n2)cn1` + CN(NC(=O)CC(=O)NN(C)C(=S)c1ccccc1)C(=S)c1ccccc1 [STA4783] (first compound 1 µM, partner dose 0.006 µM), for which the cell count amounted to 61.5%.

Regarding `C=CCn1c(=O)c2cnc(Nc3ccc(N4CCN(C)CC4)cc3)nc2n1-c1cccc(C(C)(C)O)n1` + O=C1NC(=O)/C(=C/c2ccc(-c3ccc(F)cc3O)o2)S1 [AS252424] (first compound 0.02 µM, partner dose 1 µM), the cell count is 58.6%.

Turning to `NC(=O)Nc1cc(-c2cccc(F)c2)sc1C(=O)N[C@H]1CCCNC1` + C[C@@H]1CCN(C(=O)CC#N)C[C@@H]1N(C)c1ncnc2[nH]ccc12 [CP690550] (first compound 0.02 µM, partner dose 1 µM), the cell count came to 65.1%.

Take `Cc1nc(Nc2ncc(C(=O)Nc3c(C)cccc3Cl)s2)cc(N2CCN(CCO)CC2)n1` [dasatanib] + O=C1NC(=O)/C(=C/c2ccc(-c3ccc(F)cc3O)o2)S1 [AS252424] (first compound 0.004 µM, partner dose 1 µM): the cell count amounted to 98.4%.

`NCC(=O)Nc1ccc(-n2nc(C(F)(F)F)cc2-c2ccc3c(ccc4ccccc43)c2)cc1` + Oc1nc(-c2ccc(C(F)(F)F)cc2)nc2c1CSCC2 [XAV939] (first compound 1 µM, partner dose 2 µM) had a cell count of 18.2%.

In turn, `NCC(=O)Nc1ccc(-n2nc(C(F)(F)F)cc2-c2ccc3c(ccc4ccccc43)c2)cc1` + COc1ccc(COc2ccc(Cc3cnc(N)nc3N)cc2OC)cc1 [GW2580] (first compound 1 µM, partner dose 1 µM) gave a cell count of 14.8%.

Regarding `NCC(=O)Nc1ccc(-n2nc(C(F)(F)F)cc2-c2ccc3c(ccc4ccccc43)c2)cc1` + Cc1cc([N+](=O)[O-])ccc1NS(=O)(=O)c1cc(Cl)ccc1Cl [FH535] (first compound 1 µM, partner dose 1 µM), the cell count is 11.3%.

The values above are taken from the supplement of paper PMC4604168 (melanoma cell lines).
